SMILES strings stand for the structures. About 2,200 (0.71%) of roughly 310,000 compounds showed an effect of 50% or more. Effects have a minus sign here. Some of the results follow.

The test deals with human ether-à-go-go-related gene (hERG) potassium channel (human, UniProt Q12809). Kind of test: primary screen, population patch clamp on CHO cells stably expressing hERG.
Chain of human ether-à-go-go-related gene (hERG) potassium channel (Q12809 whole entry, looked up): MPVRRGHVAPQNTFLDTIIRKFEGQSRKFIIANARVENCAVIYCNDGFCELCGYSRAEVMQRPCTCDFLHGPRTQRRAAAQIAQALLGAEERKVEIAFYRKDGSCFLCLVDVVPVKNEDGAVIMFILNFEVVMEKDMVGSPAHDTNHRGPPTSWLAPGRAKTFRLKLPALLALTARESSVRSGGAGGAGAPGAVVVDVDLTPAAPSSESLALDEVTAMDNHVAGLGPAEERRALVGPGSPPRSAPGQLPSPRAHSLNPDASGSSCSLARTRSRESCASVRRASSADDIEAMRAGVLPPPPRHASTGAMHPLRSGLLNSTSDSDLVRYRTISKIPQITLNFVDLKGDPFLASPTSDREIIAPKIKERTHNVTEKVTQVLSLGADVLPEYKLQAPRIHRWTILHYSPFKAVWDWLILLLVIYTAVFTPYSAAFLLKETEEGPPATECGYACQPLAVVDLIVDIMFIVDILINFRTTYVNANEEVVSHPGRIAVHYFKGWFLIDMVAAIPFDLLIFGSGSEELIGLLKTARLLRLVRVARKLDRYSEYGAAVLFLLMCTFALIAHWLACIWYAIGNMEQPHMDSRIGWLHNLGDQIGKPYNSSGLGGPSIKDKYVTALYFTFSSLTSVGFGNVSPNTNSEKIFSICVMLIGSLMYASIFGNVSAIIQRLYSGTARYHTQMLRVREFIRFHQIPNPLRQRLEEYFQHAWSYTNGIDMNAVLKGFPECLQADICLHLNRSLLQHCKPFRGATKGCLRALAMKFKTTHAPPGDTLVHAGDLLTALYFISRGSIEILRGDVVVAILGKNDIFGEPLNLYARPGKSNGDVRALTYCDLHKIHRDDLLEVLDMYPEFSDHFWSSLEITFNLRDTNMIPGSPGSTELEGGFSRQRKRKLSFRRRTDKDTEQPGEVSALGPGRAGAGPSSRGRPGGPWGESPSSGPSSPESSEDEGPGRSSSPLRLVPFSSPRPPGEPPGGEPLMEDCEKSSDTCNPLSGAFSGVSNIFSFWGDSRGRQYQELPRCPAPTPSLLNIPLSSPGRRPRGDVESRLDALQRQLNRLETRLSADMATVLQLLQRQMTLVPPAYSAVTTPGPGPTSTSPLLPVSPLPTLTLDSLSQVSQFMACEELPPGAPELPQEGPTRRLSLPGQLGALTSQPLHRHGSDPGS
In the case of `Cc1ccc2nc(SCC(=O)Nc3ccc(F)c([N+](=O)[O-])c3)[nH]c2c1`, the “hERG current change (%, negative = inhibition) at 1uM” value was determined as 2.21%. Consider `COc1ccc(NC(=O)C2CCCN(C(=O)Nc3ccc(F)cc3)C2)cc1OC` (centres unmarked), for which the “hERG current change (%, negative = inhibition) at 1uM” value was 11.8%. For the compound `COc1cc(CCC(=O)OCc2nnc(-c3ccccc3)o2)cc(OC)c1OC`, the “hERG current change (%, negative = inhibition) at 1uM” value was 12.1%. On to `Cc1ccc2nccc(C(=O)N3CCCC(Nc4ccc(F)cc4)C3)c2c1` (centres unmarked), for which the “hERG current change (%, negative = inhibition) at 1uM” value was 11.4%. As to `Cc1cc(C)nc(-n2nc(C)cc2NC(=O)CNC2CCCCC2)n1`, the “hERG current change (%, negative = inhibition) at 1uM” value was -5.51%. On to `CCCN(CC1CCCO1)C(=O)c1cc(COc2cccc(OC)c2)on1` (centres unmarked), for which the “hERG current change (%, negative = inhibition) at 1uM” value is reported as 7.66%.

Regarding `Cc1nc(NC(=O)CSc2nnc(N)s2)c(Cl)cc1Cl`, the “hERG current change (%, negative = inhibition) at 1uM” value was 16.2%. In the case of `COc1cc2c(cc1OC)CN(Cc1cc(=O)oc3cc(C)c(Cl)cc13)CC2`, the “hERG current change (%, negative = inhibition) at 1uM” value amounted to 9.06%. In the case of `CN1/C(=C/C2CC(=O)N(c3cccc4ccccc34)C2=O)C(C)(C)c2ccccc21` (centres unmarked), the “hERG current change (%, negative = inhibition) at 1uM” value worked out at 3.51%.

Consider `Cn1c(=O)c2[nH]c(-c3cccnc3)nc2n(C)c1=O`, for which the “hERG current change (%, negative = inhibition) at 1uM” value is on record as -0.455%. Turning to `CCCn1cc(SCC(=O)Nc2cc(C)on2)c2ccccc21`, the “hERG current change (%, negative = inhibition) at 1uM” value is listed as -2.82%.

Take `Cc1cc2c(cc1S(=O)(=O)N1CCN(c3ccc(Cl)cc3)CC1)OCCN2C`: the “hERG current change (%, negative = inhibition) at 1uM” value was determined as 10.9%. With `Cc1nc2c(=O)n(-c3ccc(F)cc3F)nc(C)c2s1`, the “hERG current change (%, negative = inhibition) at 1uM” value is 20%. Turning to `CC(C)(C)c1ccc(NC(=O)Cn2cnc3cc([N+](=O)[O-])ccc3c2=O)cc1`, the “hERG current change (%, negative = inhibition) at 1uM” value turned out to be 0.367%. As for `CCOC(=O)c1cc(-c2ccccc2)n(CCC(=O)NC(C)CC)c1C` (centres unmarked), the figure is -5.34%; as for `CCCNC(=O)C(Cc1cccc(C#N)c1)NC(=O)c1cccc([N+](=O)[O-])c1` (centres unmarked), 8.85%. As for `NC(=O)c1cc[n+](Cc2ccccc2Cl)cc1.[Br-]`, the “hERG current change (%, negative = inhibition) at 1uM” value is listed as 13.3%.

On to `CCOC(=O)c1c(N)sc2c1CCN(CCc1ccccc1)C2`, for which the “hERG current change (%, negative = inhibition) at 1uM” value is recorded as 7.93%.

`CCNC(=S)N/N=C/c1sc(N2CCCCC2)nc1-c1cccs1`: the “hERG current change (%, negative = inhibition) at 1uM” value is given as -1.33%.

Consider `O=C1C(O)CC2c3ccccc3CC3(CCCC3)N12` (centres unmarked), for which the “hERG current change (%, negative = inhibition) at 1uM” value came to 10%. As for `Cn1c(N)c(C(=O)COC(=O)/C=C/c2ccc(S(=O)(=O)N3CCOCC3)cc2)c(=O)n(C)c1=O`, the figure is -4.31%; as for `CC(C)(C)OC(=O)NCCCCCc1nnc(SCc2cccc(F)c2)o1`, 1.64%; as for `CC(=O)Nc1ccc(NC(=O)Nc2cccc(Cl)c2)cc1`, 13.3%. Regarding `CCOc1ccc(NS(=O)(=O)c2ccc(C(=O)NCC3(N4CCCCC4)CCCCC3)cc2)cc1`, the “hERG current change (%, negative = inhibition) at 1uM” value was 8.39%. On to `COCCN(C(=S)Nc1cccc(OC)c1)C(C)c1cccs1` (centres unmarked), for which the “hERG current change (%, negative = inhibition) at 1uM” value came to 1.03%. Regarding `Cc1cc(N2CCCC2=O)c(N)cc1N`, the “hERG current change (%, negative = inhibition) at 1uM” value is on record as 15%.

For `Cn1c(/C=C/c2ccc(Cl)cc2)c([N+](=O)[O-])c(=O)n(C)c1=O`, the “hERG current change (%, negative = inhibition) at 1uM” value stood at 6.85%. For `CCOC(=O)c1cccc(C2=CC(=O)CC(C)(C)C2)c1` the value was 8.16%. Take `O=C(O)c1cc(-c2cccs2)nc2cc3c(cc12)OCCO3`: the “hERG current change (%, negative = inhibition) at 1uM” value was -2.68%.

Consider `COc1cc(NC(=O)N2CCNC2=O)cc(C(=O)Nc2cccc(C(F)(F)F)c2)c1`, for which the “hERG current change (%, negative = inhibition) at 1uM” value is given as -1.8%. Regarding `COCCCNC(=O)/C(C#N)=C/c1ccc(F)cc1`, the “hERG current change (%, negative = inhibition) at 1uM” value was found to be 10.1%.

In the case of `CCOc1ccc(S(=O)(=O)N2CCOCC2)cc1NC(=O)CN1C(=O)NC2(CCCCC2)C1=O`, the “hERG current change (%, negative = inhibition) at 1uM” value is on record as -1.58%. As to `COc1cc(C(=O)NC(c2ccccc2)c2ccccc2)cc(Cl)c1OC`, the “hERG current change (%, negative = inhibition) at 1uM” value amounted to 4.19%. For `COc1cccc(NC(=O)N2CCCC(C(=O)NC3CCCCC3C)C2)c1` (centres unmarked), the “hERG current change (%, negative = inhibition) at 1uM” value was 12%.

`O=S(=O)([N-]c1nc2ccccc2nc1-n1cc[n+](Cc2ccccc2)c1)c1ccccc1`: the “hERG current change (%, negative = inhibition) at 1uM” value worked out at 7.68%. As to `COC(=O)C(C(C)C)N1CCc2c(C)nc3c(C#N)cnn3c21` (centres unmarked), the “hERG current change (%, negative = inhibition) at 1uM” value was 10.3%.

As to `CCOC(=O)N1CCN(C(=S)NC(=O)C23CC4CC(CC(C4)C2)C3)CC1`, the “hERG current change (%, negative = inhibition) at 1uM” value was found to be 6.06%. For the compound `Cc1cnc(C(=O)NCCc2ccc(C(F)(F)F)cc2)cn1`, the “hERG current change (%, negative = inhibition) at 1uM” value turned out to be 11.7%. For `Cc1ccc(S(=O)(=O)N2CCC(C(=O)OC(C)C(=O)NC3CCCCC3C)CC2)cc1C` (centres unmarked) the value was 6.11%. As for `Cc1ccc(N2C(=O)c3ccc(N)cc3C2=O)cc1C`, the figure is 4.13%; as for `O=C(Nc1ccc(CN2CCOCC2)cc1)c1ccc2ccccc2c1`, -23.7%. As to `Cc1ccc(-c2nnc(SCC(=O)N3CCCC3)o2)cc1`, the “hERG current change (%, negative = inhibition) at 1uM” value was 4.08%. Take `CN(C)c1ccc(CN2CCC(C(N)=O)CC2)cc1.O=C(O)C(=O)O`: the “hERG current change (%, negative = inhibition) at 1uM” value is 15.1%. For `O=S1(=O)CCC(SCc2nc3sccn3c2Br)C1` (centres unmarked), the “hERG current change (%, negative = inhibition) at 1uM” value came out at 3.17%. Turning to `COc1ccc(-c2cc(C)no2)cc1S(=O)(=O)N(C)c1ccc(C)c(C)c1`, the “hERG current change (%, negative = inhibition) at 1uM” value is on record as 9.2%.

Consider `C=CCn1c(SCCN2CCCCC2)nc2c1c(=O)[nH]c(=O)n2C`, for which the “hERG current change (%, negative = inhibition) at 1uM” value is given as -27.4%. On to `Cc1cc(C)cc(CC(Cc2nc3ccccc3[nH]2)c2nc3ccccc3[nH]2)c1` (centres unmarked), for which the “hERG current change (%, negative = inhibition) at 1uM” value is 12.7%. In the case of `CCS(=O)(=O)n1nc(C(=O)N2CCOCC2)nc1N`, the “hERG current change (%, negative = inhibition) at 1uM” value amounted to 11.4%. `COc1nc(Cl)cn(-c2ccc(C)cc2)c1=O`: the “hERG current change (%, negative = inhibition) at 1uM” value is recorded as -3.71%. Turning to `O=C(Nc1ccc(Cl)cc1C(=O)NCCN1CCOCC1)c1ccco1`, the “hERG current change (%, negative = inhibition) at 1uM” value is listed as -1.49%. In the case of `O=C(CSc1nnc(CN2CCOCC2)n1-c1ccc(Cl)cc1)N1CCc2ccccc21`, the “hERG current change (%, negative = inhibition) at 1uM” value stood at 14.2%. For the compound `CCOC(=O)c1ccc(N2C(=O)C(CC(N)=O)N(CCc3ccc(OC)c(OC)c3)C2=S)cc1` (centres unmarked), the “hERG current change (%, negative = inhibition) at 1uM” value is listed as 13.9%. For `CCc1ccc(NC(=O)C2CCN(S(=O)(=O)c3ccc4c(c3)NC(=O)C(C)S4)CC2)cc1` (centres unmarked), the “hERG current change (%, negative = inhibition) at 1uM” value turned out to be 17%. Regarding `Cc1ccc(NC(=O)CCc2c(C)nn(-c3ccc(N4CCOCC4)nn3)c2C)cc1`, the “hERG current change (%, negative = inhibition) at 1uM” value is recorded as -2.77%. For `O=C(Nc1cccc(-c2cccc(Cl)c2)c1)C1CCN(Cc2ccccn2)CC1` the value was 1.65%. In the case of `c1ccc(-c2nc(N3CCN(c4ccccc4)CC3)nc(-n3ccnc3)n2)cc1`, the “hERG current change (%, negative = inhibition) at 1uM” value worked out at 4.5%.

The record behind these values is paper PMC4336329 (PLoS ONE, 2015).
